Out of some 360,000 compounds screened, about 16,000 (4.4%) were called active. This list was built around the results that the source calls inconclusive (neither active nor inactive); the mix of calls is not that of the screen. The call rests on the fitted dose curve; in most records, active means well fitted inhibition curve with a large enough effect; inconclusive means small, poorly fitted or top-dose-only effect; inactive means no such curve, though single readings can be large or run the other way. Potencies beside an inconclusive call are fits to weak or partial responses and may not hold up.
Biological target: Bromodomain adjacent to zinc finger domain protein 2B (Homo sapiens) (UniProt Q9UIF8)
Assay: qHTS Assay for Inhibitors of BAZ2B; further: nearly all actives have a fitted effect of over 60% in size
Conditions: AlphaScreen BAZ2B-H3K14Ac peptide displacement; activity change, negative = inhibition: at 114 µM (top of the series) unless noted
Outline: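 BAZ2B (50 nM) with biotin-H3(5-23)K14Ac peptide (50 nM) in PBS pH 7.4, 0.01% Tween-20, preformed 30 min, then compound 30 min at room temperature; top concentration 110uM. AlphaScreen streptavidin donor/nickel chelate acceptor beads (10 ug/mL final), 20 min dark, signal read.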
On the % scale 0 is the no-effect control and ±100 the full control effect; potency means the concentration at half of the fitted maximal effect; tags describe the fitted curve by direction and shape.

Chain of UniProt Q9UIF8 (Q9UIF8 whole entry, looked up, the tested form may be a part): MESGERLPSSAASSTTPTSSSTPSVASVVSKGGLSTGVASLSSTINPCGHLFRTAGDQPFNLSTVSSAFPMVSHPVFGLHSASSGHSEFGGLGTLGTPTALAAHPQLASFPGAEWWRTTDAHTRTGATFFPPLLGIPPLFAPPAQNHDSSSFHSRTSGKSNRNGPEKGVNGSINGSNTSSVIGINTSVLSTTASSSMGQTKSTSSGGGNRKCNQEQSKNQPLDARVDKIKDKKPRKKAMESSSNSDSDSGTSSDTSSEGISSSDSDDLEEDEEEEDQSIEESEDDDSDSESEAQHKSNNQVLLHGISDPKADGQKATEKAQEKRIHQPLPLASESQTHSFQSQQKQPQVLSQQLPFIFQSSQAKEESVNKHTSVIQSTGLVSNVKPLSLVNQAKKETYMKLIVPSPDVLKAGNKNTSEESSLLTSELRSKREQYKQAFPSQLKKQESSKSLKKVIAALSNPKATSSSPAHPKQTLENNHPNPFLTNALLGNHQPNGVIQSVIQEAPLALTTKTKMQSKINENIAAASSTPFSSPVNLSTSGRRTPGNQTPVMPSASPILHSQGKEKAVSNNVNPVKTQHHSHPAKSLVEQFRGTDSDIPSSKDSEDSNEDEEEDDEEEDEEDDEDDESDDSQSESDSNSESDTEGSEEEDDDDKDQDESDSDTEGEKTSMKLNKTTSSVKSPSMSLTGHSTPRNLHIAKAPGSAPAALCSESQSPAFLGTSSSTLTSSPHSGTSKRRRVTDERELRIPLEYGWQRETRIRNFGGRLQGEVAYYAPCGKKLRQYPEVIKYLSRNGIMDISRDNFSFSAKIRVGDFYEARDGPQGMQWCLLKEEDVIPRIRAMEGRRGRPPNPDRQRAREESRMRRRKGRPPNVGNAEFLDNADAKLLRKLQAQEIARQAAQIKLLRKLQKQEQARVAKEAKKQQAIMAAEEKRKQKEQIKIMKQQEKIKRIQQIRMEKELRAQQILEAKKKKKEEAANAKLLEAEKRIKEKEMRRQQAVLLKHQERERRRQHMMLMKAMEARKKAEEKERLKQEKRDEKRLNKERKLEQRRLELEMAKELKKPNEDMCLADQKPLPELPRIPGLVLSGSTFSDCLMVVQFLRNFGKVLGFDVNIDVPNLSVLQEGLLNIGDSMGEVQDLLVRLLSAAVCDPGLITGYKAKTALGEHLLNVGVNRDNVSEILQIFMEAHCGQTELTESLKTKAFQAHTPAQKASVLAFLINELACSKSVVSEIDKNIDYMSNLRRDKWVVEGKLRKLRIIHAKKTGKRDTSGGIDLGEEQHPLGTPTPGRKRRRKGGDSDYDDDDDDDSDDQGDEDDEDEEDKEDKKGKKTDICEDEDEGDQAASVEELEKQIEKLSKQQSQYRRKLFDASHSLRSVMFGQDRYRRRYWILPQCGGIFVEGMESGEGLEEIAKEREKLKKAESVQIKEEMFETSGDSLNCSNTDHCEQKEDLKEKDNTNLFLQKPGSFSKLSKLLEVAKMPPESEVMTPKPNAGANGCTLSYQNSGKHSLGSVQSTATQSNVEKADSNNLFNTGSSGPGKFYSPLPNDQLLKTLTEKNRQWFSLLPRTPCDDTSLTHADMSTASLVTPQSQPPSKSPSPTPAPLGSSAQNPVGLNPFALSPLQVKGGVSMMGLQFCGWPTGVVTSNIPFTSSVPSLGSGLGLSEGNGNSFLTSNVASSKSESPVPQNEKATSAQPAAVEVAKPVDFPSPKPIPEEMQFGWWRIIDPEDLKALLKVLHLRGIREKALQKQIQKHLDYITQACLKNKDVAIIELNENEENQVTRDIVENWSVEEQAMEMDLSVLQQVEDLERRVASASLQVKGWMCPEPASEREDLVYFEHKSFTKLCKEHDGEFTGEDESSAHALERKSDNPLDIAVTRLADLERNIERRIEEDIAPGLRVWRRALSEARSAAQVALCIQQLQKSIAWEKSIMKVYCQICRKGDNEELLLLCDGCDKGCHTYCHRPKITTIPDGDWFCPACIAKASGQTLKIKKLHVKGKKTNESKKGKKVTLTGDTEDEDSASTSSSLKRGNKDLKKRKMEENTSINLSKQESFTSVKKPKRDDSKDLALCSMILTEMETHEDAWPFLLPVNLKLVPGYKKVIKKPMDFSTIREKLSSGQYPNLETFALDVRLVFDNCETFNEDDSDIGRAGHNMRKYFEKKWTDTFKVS

Row | Compound | Potency | activity change, negative = inhibition
1 | COc1ccc2[nH]c(C)c(CCNC(=S)Nc3cc(C)cc(C)c3)c2c1 | active: 28.2 µM | 
2 | O=c1c(NCc2cccs2)nccn1-c1ccccc1 | inconclusive: 70.8 µM [inhibitor, single point] | 
3 | COc1ccc(-n2cc(-c3ccccc3)c3c(N4CCCC(C)C4)ncnc32)cc1 (stereo not given) | inconclusive: 17.8 µM [inhibitor, full curve] | 
4 | CCCNC(=O)c1ccc(-c2nc3ccccc3s2)s1 | active: 4.47 µM | 
5 | CC(NCC1(N2CCOCC2)CCCCC1)C(=O)Nc1ccc(Cl)cc1Cl (stereo not given) | active: 50.1 µM | 
6 | O=C(O)c1nccnc1C(=O)Nc1ccc(Cl)cn1 | inconclusive: 89.1 µM [inhibitor, single point] | 
7 | Cc1ccc(/C=C/C(=O)c2ccccc(=O)c2O)c(C)c1 | active: 50.1 µM | 
8 | COc1ccc(/C=N/N2CCOCC2)cc1Cn1cc([N+](=O)[O-])cn1 | inconclusive: 79.4 µM [inhibitor, single point] | 
9 | COC(=O)c1ccc(NC(=O)CN2CCN(CC#N)CC2)cc1 | active: 39.8 µM | 
10 | C=CCn1c(C)cc(C(=O)COC(=O)c2ccc(N)c([N+](=O)[O-])c2)c1C | inconclusive: 39.8 µM [inhibitor, partial curve] | 
11 | C#CCOCCOCCOCCNc1nc(N2CCN(C(=O)[C@H]([C@@H](C)CC)n3cc([C@@H](N)CO)nn3)CC2)nc(N2CCN(C(=O)[C@H](CCCCN)n3cc([C@@H](N)CC(C)C)nn3)CC2)n1 | active: 79.4 µM | 
12 | Cc1cccc(/C=N/n2c(COc3ccccc3)n[nH]c2=S)c1 | inconclusive: 56.2 µM [inhibitor, partial curve] | 
13 | Brc1cc2c(cc1/C=N/Nc1nc(N3CCCCC3)nc(N3CCCCC3)n1)OCO2 | inconclusive: 8.91 µM [inhibitor, full curve, poor fit] | 
14 | CCCSC1=N/C(=C\C=C\c2ccco2)C(=O)S1 | active: 11.2 µM | 
15 | O=C(CCCCl)Oc1ccc2cc(-c3ccc4ccccc4n3)c(=O)oc2c1 | inactive | 
16 | CC(=O)/C(=N/Nc1cccc(C)c1)N1CCOCC1 | inconclusive: 89.1 µM [inhibitor, single point] | 
17 | COc1ccc(C(=O)N2c3nc(-c4ccco4)nn3C3(CCCCC3)[C@@H]3CCCC[C@@H]32)cc1OC | inconclusive: 44.7 µM [inhibitor, partial curve] | 
18 | O=C(c1ccccc1)N1CC(COc2ccccc2)OC(c2ccco2)O1 (stereo not given) | inconclusive: 70.8 µM [inhibitor, single point] | 
19 | COc1ccc(N2CC(C)Cn3c2nc2c3c(=O)n(Cc3ccccc3F)c(=O)n2C)c(OC)c1 (stereo not given) | inconclusive: 79.4 µM [inhibitor, single point] | 
20 | COc1cc(OC)cc(-c2nc3ccccc3c(=O)n2OC(=O)c2ccc(Br)cc2)c1 | inconclusive: 89.1 µM [inhibitor, single point] | 
21 | OC(C#CCN1CCOCC1)(c1ccccc1)C1CC1 (stereo not given) | inconclusive: 89.1 µM [inhibitor, single point] | 
22 | Cc1ccc(C)c(S(=O)(=O)N2CCN(c3nc(CN4CCOCC4)nc4sc(C)c(C)c34)CC2)c1 | inconclusive: 44.7 µM [inhibitor, partial curve] | 
23 | CCc1ccc(-c2cc(C)no2)cc1S(=O)(=O)NCc1ccco1 | inconclusive: 50.1 µM [inhibitor, partial curve] | 
24 | CC1CC(C)CN(S(=O)(=O)CCNC(=O)c2ccccc2)C1 (stereo not given) | inactive | 

Row | Compound | Potency | activity change, negative = inhibition
25 | Cc1ccc(C(=O)N/N=C(/CC(=O)c2cccs2)C(F)(F)F)cc1 | inconclusive: 50.1 µM [inhibitor, partial curve] | 
26 | O=C1CCCC2=C1Sc1ccc(Cl)cc1N2 | inconclusive: 79.4 µM [inhibitor, single point] | 
27 | CCOc1ccc(C2C(C#N)=C(N)SC(N)=C2C#N)cc1OC | inconclusive: 89.1 µM [inhibitor, single point] | 
28 | CC1=NN(c2ccccc2)C(=O)/C1=C/c1cccs1 | active: 15.8 µM | 
29 | COc1ccc(N=C2S/C(=C\c3cc(C)n(C)c3C)C(=O)N2CC(C)C)cc1 | inconclusive: 20 µM [inhibitor, single point] | 
30 | CCN1CCN(c2nc3sc4c(c3c(=O)n2-c2ccc(OC)cc2)CCCCC4)CC1 | inconclusive: 79.4 µM [inhibitor, single point] | 
31 | COC(=O)Cc1cc(=O)n(-c2nc3ccccc3s2)[nH]1 | inconclusive: 89.1 µM [inhibitor, single point] | 
32 | O=C(NCc1ccc(C(F)(F)F)cc1)C12CN(Cc3ccccc3)CC1C(c1cccc([N+](=O)[O-])c1)=NO2 (stereo not given) | inactive | 
33 | CCOC(=O)CCNC(=O)N1CCCC(Cc2ccccc2)(C(=O)OCC)C1 (stereo not given) | inactive | 
34 | COc1ccc2[nH]cc(CCNC(=S)NCCc3ccccc3)c2c1 | active: 28.2 µM | 
35 | COc1cc(/C=C2\SC(=S)N(NC(=O)c3ccccc3OC)C2=O)ccc1O | active: 20 µM | 
36 | O=[N+]([O-])c1ccc(N2CCN(S(=O)(=O)c3ccc(Cl)cc3)CC2)cc1NCC1CCCO1 (stereo not given) | inconclusive: 79.4 µM [inhibitor, single point] | 
37 | Cc1c(NC(=S)NC(=O)c2cccc3ccccc23)cccc1C(=O)O | inactive | 
38 | Cc1ccc(C(=O)OCC(=O)N(CC(C)C)c2c(N)n(Cc3ccccc3)c(=O)[nH]c2=O)s1 | inactive | 
39 | COc1ccc(C(NC(C)=O)c2ccc3cccnc3c2O)c(OC)c1 (stereo not given) | active: 28.2 µM | 
40 | CCOC(=O)C1Sc2[nH]c(=O)sc2C(c2ccc(Cl)cc2)C1C(=O)OCC (stereo not given) | active: 50.1 µM | 
41 | O=C(Nc1nc(-c2ccc(Cl)s2)cs1)c1ccncc1 | inactive | 
42 | COCCNC(=S)N(CCc1c(C)[nH]c2ccc(F)cc12)Cc1ccco1 | active: 70.8 µM | 
43 | CC1CCc2sc(C(=O)N(C)CC(=O)Nc3ccc(N4CCOCC4)cc3)cc2C1 (stereo not given) | inconclusive: 50.1 µM [inhibitor, partial curve] | 
44 | CCOC(=O)C1CCCN(c2c(C(=O)c3ccc(C)cc3)cnc3ccc(OCC)cc23)C1 (stereo not given) | active: 50.1 µM | 
45 | Cc1cc(C)c(NC(=O)CSc2ccc(-c3cccnc3)nn2)c(C)c1 | inactive | 
46 | O=C(NC(=S)Nc1cccc(Cl)c1N1CCCCC1)c1ccc2c(c1)OCCO2 | inconclusive: 70.8 µM [inhibitor, single point] | 
47 | Cc1ccc(Nc2c(-c3ccc(N4CCOCC4)cc3)nc3c(C)cccn23)cc1 | inactive | 
48 | O=C(O)CCC(=O)N1N=C(c2ccc(Br)cc2)CC1c1cccc(Br)c1 (stereo not given) | inconclusive: 89.1 µM [inhibitor, single point] | 

Row | Compound | Potency | activity change, negative = inhibition
49 | Cc1cccc(Nc2ccc([N+](=O)[O-])cc2C(=O)O)c1 | active: 50.1 µM | 
50 | COc1ccc(NC(=O)c2c(OC)cccc2OC)c(OC)c1 | active: 50.1 µM | 
51 | CC(C(=O)NC1C=CS(=O)(=O)C1)N1C(=O)/C(=C/c2ccc(Cl)cc2)SC1=S (stereo not given) | active: 22.4 µM | 
52 | CC(C)N(Cc1cn[nH]c1-c1ccc(-c2ccccc2)cc1)Cc1nccn1C | active: 56.2 µM | 
53 | CCNc1ccc(S(=O)(=O)N(C)C)cc1NCC(=O)Nc1ccc(F)c(Cl)c1 | inconclusive: 28.2 µM [inhibitor, partial curve] | 
54 | CC(C)Nc1nnc(Sc2ccc(Cl)cc2[N+](=O)[O-])s1 | inconclusive: 39.8 µM [inhibitor, full curve] | 
55 | Nc1c(C(=O)NCCc2ccccc2)nnn1CC(=O)Nc1ccc(Cl)cc1 | inactive | 
56 | COc1cc(CN2CCc3ccccc3C2)cc([N+](=O)[O-])c1O | inconclusive: 89.1 µM [inhibitor, single point] | 
57 | COc1cc(NS(=O)(=O)c2ccc3[nH]c4c(c3c2)CCCC4)cc(OC)c1OC | inconclusive: 44.7 µM [inhibitor, partial curve] | 
58 | O=c1c(Cl)c(NCc2ccco2)cnn1C12CC3CC(CC(C3)C1)C2 | inconclusive: 79.4 µM [inhibitor, single point] | 
59 | C[n+]1ccc(/C=C/c2c[nH]c3ccccc23)cc1 | active: 44.7 µM | 
60 | Cc1cc(C)nc(NS(=O)(=O)c2ccc(NC(=O)c3cc(=O)c4ccc(C)c(C)c4o3)cc2)n1 | inconclusive: 56.2 µM [inhibitor, partial curve] | 
61 | C/C(=N\Nc1ccc(S(N)(=O)=O)cc1[N+](=O)[O-])c1ccc2c(c1)OCO2 | inconclusive: 79.4 µM [inhibitor, single point] | 
62 | COc1ccc([C@]23Cc4ccccc4C(O2)c2c(cc(-c4ccccc4)oc2=O)O3)cc1 |  | inactive: 39.7% [at 22.9 µM]
63 | COc1cccc(-c2ccc(NC(=O)C3CCCN(Cc4ccc(CO)o4)C3)cc2)c1 (stereo not given) | inconclusive: 50.1 µM [inhibitor, partial curve] | 
64 | O=C(C1CCCCC1)N(Cc1cccnc1)c1nc2c(F)cc(F)cc2s1 | inconclusive: 89.1 µM [inhibitor, single point] | 
65 | COc1ccc(OC)c(NC(=O)c2c(NCc3ccc(OC)c(OC)c3)sc3c2CCC(C)C3)c1 (stereo not given) | inconclusive: 22.4 µM [inhibitor, full curve] | 
66 | O=C(Nc1cccc(Cl)c1)c1cccc(N2C(=O)C3CC=CCC3C2=O)c1 (stereo not given) | inconclusive: 56.2 µM [inhibitor, partial curve] | 
67 | O=C(CSc1nnc(-c2ccco2)o1)N1CCCCC1 | inactive | 
68 | O=C(NC1CCCCC1)c1cc2cc(Br)ccc2o1 | inconclusive: 89.1 µM [inhibitor, single point] | 
69 | COCC(C)NCc1cccc(OC)c1OC (stereo not given) | inconclusive: 31.6 µM [inhibitor, single point] | 
70 | O=C(O)C1Sc2[nH]c(=O)sc2C2c3cc(Br)ccc3OC(=O)C12 (stereo not given) | inconclusive: 79.4 µM [inhibitor, single point] | 
